Test results: the supplement of paper PMC7826260
The other results are listed elsewhere or left out. Cleavage of a single-stranded DNA pool by Rep nickase domains was read by sequencing (3 µM enzyme, 1 h, 37 °C); shown is the middle of each 90-letter strand. Numbers give uncut DNA relative to the enzyme-free pool, as log2; uncut sequences lie near 0, cut ones below; no hit call is given. Counts are relative to all reads; where an enzyme cuts many sequences, the uncut ones exceed 0.

Columns and labels:
Assay in all cases: uncleaved DNA left, log2 of reads against the no-enzyme library (log2 ratio); higher = less cleavage (more negative = more Rep cleavage of the k-mer); sequences stand for … in CTCGTCCG…ACCGGAGA
[1] = tested on: T1, Rep nickase domain of Muscovy duck circovirus
T1 sequence (Rep 1-111, printed without the tag): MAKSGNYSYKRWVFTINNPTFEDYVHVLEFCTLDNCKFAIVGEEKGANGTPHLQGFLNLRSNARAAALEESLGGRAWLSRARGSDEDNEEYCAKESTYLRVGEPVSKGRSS
Experimental: (§1)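 A pool of 90-nt single-stranded DNAs with seven random bases just before the constant AC of the nick site (name = the seven bases) was cut by 3 µM recombinant His6-SUMO-tagged Rep nickase domain (300 nM DNA, 50 mM HEPES pH 8.0, 50 mM NaCl, 1 mM MnCl2, 1 h, 37 °C, three replicates). Uncut DNA was amplified and sequenced.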

[2] = tested on: T2, Rep nickase domain of banana bunchy top virus
T2 sequence (Rep 1-94, printed without the tag): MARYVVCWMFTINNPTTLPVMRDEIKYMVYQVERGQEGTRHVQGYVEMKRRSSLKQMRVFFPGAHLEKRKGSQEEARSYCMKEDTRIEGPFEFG
Experimental: as §1

[3] = tested on: T3, Rep nickase domain of cabbage leaf curl virus
T3 sequence (Rep 1-116, printed without the tag): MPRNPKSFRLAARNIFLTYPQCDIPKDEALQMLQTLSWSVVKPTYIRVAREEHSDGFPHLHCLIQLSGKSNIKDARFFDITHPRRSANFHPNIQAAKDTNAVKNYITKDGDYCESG
Experimental: as §1

[4] = tested on: T4, Rep nickase domain of chickpea chlorotic dwarf virus
T4 sequence (Rep 1-124, printed without the tag): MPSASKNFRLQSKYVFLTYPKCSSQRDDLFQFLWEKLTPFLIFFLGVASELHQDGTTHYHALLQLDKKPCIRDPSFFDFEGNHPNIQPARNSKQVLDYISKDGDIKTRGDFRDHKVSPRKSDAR
Experimental: as §1

[5] = tested on: T5, Rep nickase domain of faba bean necrotic yellows virus
T5 sequence (Rep 1-98, printed without the tag): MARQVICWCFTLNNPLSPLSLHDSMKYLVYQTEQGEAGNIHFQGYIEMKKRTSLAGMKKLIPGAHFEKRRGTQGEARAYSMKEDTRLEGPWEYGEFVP
Experimental: as §1

[6] = tested on: T6, Rep nickase domain of maize striate mosaic virus
T6 sequence (Rep 1-117, printed without the tag): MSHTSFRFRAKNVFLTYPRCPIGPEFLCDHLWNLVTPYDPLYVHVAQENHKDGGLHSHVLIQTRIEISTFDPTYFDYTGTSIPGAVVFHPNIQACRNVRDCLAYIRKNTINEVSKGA
Experimental: as §1

[7] = tested on: T7, Rep nickase domain of porcine circovirus 2
T7 sequence (Rep 2-116, printed without the tag): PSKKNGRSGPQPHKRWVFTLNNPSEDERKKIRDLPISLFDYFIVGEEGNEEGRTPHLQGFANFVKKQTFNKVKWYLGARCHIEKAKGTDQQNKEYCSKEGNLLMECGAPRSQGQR
Experimental: as §1

[8] = tested on: T8, Rep nickase domain of tomato golden mosaic virus
T8 sequence (Rep 1-124, printed without the tag): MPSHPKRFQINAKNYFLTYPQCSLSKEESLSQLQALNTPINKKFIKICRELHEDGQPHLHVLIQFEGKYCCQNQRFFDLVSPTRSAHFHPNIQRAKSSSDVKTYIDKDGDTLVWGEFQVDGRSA
Experimental: as §1

[9] = tested on: T9, Rep nickase domain of tomato yellow leaf curl virus
T9 sequence (Rep 1-136, printed without the tag): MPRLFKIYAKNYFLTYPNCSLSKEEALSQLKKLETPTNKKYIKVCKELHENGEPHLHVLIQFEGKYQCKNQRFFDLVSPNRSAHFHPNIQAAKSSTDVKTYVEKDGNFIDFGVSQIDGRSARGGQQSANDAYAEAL
Experimental: as §1

[10] = tested on: T10, Rep nickase domain of wheat dwarf virus
T10 sequence (Rep 1-137, printed without the tag): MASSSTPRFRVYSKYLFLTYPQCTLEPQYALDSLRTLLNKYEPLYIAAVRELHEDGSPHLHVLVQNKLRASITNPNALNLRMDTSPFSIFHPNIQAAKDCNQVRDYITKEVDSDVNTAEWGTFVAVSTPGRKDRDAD
Experimental: as §1

Sequence	uncleaved DNA left (log2) [1]	uncleaved DNA left (log2) [2]	uncleaved DNA left (log2) [3]	uncleaved DNA left (log2) [4]	uncleaved DNA left (log2) [5]	uncleaved DNA left (log2) [6]	uncleaved DNA left (log2) [7]	uncleaved DNA left (log2) [8]	uncleaved DNA left (log2) [9]	uncleaved DNA left (log2) [10]
CGTCTTA	-0.0155	-0.015	0.124	-0.615	0.0807	-0.0784	-0.24	-0.0801	0.064	0.196
AAATGGC	0.118	0.0552	-0.532	-0.752	0.117	-1.2	0.125	0.066	0.107	0.0095
GCCTCGC	-0.0262	0.0752	-0.252	-0.0386	0.0188	-0.491	0.0608	0.0176	0.0282	-0.0452
GATCAAA	0.162	0.247	0.464	0.965	0.169	1.13	0.276	0.183	0.189	0.296
TGCGGAC	0.00618	0.084	0.622	1.41	-0.0837	1.68	0.234	0.141	-0.0874	-0.018
CGCTGTG	0.079	-0.0796	-0.695	-0.263	-0.0359	-0.826	0.011	-0.0832	-0.0533	-0.0743
GGTGCCC	-0.0996	-0.108	0.419	1.08	-0.068	1.58	-0.00411	-0.0278	-0.00982	0.0874
TCCCGCC	-0.0747	-0.311	-0.0117	-0.3	-0.0695	-0.743	-0.0142	-0.172	-0.0888	-0.132
GCTCGGG	0.0201	-0.0924	-0.13	0.188	0.048	-0.38	0.0376	0.0593	0.063	0.0375
TGAAGAT	0.0388	-0.0635	0.243	0.875	0.0508	1.41	0.0845	0.0447	-0.0746	0.0749
CGAGCTG	-0.104	0.0162	0.0851	0.794	-0.0329	1.59	-0.092	-0.00606	-0.216	0.00886
ATCACAC	0.0868	0.0729	-0.0944	-0.344	0.0116	-0.836	0.0951	-0.0478	0.0343	0.0226
CTAAATT	0.0256	-0.174	0.0575	-2.29	-0.0551	-0.531	-0.447	0.0332	-0.0262	-0.0483
GCCATTG	-0.131	-0.101	-0.556	-0.26	0.0316	-0.833	0.0662	0.0612	0.0442	-0.126
CGGCATC	0.00988	0.0177	0.423	1.17	-0.0322	1.26	-0.0188	-0.283	-0.0862	0.0139
AGTGCTT	-0.043	-0.0544	0.0421	-0.0675	-0.0965	0.861	-2.44	0.0368	-0.0997	-0.141
AACGGCT	-0.108	0.0521	-0.0164	0.265	-0.107	0.64	0.0992	0.0442	-0.077	-0.0347
TGCGTTT	-0.0255	0.0257	-0.337	-1.05	0.119	-0.777	-0.0734	-0.0357	0.0435	-0.115
GGCACAC	-0.0431	-0.00402	0.671	1.61	-0.0481	2.08	0.0879	-0.129	0.0458	0.138
GACGCGG	0.0085	0.0948	0.135	0.673	-0.0693	0.463	0.0364	0.0362	-0.0131	-0.0889
CCATTAC	0.0645	0.0799	-0.427	-1.56	0.00575	-0.981	0.013	0.0413	0.0763	-0.0159

Sequence	uncleaved DNA left (log2) [1]	uncleaved DNA left (log2) [2]	uncleaved DNA left (log2) [3]	uncleaved DNA left (log2) [4]	uncleaved DNA left (log2) [5]	uncleaved DNA left (log2) [6]	uncleaved DNA left (log2) [7]	uncleaved DNA left (log2) [8]	uncleaved DNA left (log2) [9]	uncleaved DNA left (log2) [10]
GGCCACT	-0.0789	-0.0588	0.446	0.945	-0.0683	1.78	0.0395	-0.12	0.0575	0.12
CATGGGC	0.0145	-0.0678	-0.359	-0.196	-0.164	-1.02	0.0522		-0.15	-0.0838
CGGAGAA	-0.0762	-0.128	0.321	0.688	-0.0794	0.505	-0.0943		-0.116	-0.0135
CCCACGA	-0.0525	-0.0416	-0.0912	-0.338	0.153	-0.741	-0.0794		-0.107	-0.0873
GACCATC	0.00836	0.109	0.379	0.726	0.0551	0.458	0.0274		0.0163	0.0994
GGTGTCT	0.0331	-0.0477	0.58	1.42	-0.0632	2.01	0.0182		0.0595	-0.0105
GAGAGCT	0.239	0.00206	0.207	-0.0788	-0.0332	0.488	-2.3		0.0806	0.175
TTCCTCA	-0.0171	0.155	0.0801	-0.762	0.0642	-0.106	-0.031		0.128	0.172
TCTCCCT	-0.157	-0.0212	0.0914	-1.06	-0.0144	0.514	-1.39		0.0318	0.102
GGCTTGC	-0.0297	0.0054	0.0569	0.548	-0.0213	0.684	0.148		0.037	0.0597
AGCTAAT	-0.758	-0.0663	-0.767	-0.448	-0.105	0.225	-3.77		0.0505	-0.367
CCAATAT	-0.077	-0.0121	-0.00317	-0.949	-0.24	-0.764	-0.0731		-0.0267	-0.0394
CTACTGC	-0.0434	-0.0266	-0.331	-0.608	-0.0875	-0.581	0.0413		-0.251	-0.105
GTGGGTT	-0.145	-0.0673	0.328	1	-0.0604	1.73	0.12		-0.0605	0.0191
ATCATTG	0.045	-0.0123	-0.726	-0.67	0.0613	-1.14	0.213		-0.0947	-0.16
TACAGTC	-0.0451	0.026	-0.177	-0.848	0.000389	-1	-0.00386		0.0342	-0.0136
GACAACA	-0.0426	-0.0229	0.275	-1.33	0.0769	0.718	0.0469		0.0525	-0.0126
CACTTTA	-0.242	-0.292	-0.3	-2.47	-0.15	-0.987	-2.69		-0.0662	-0.0259
AGGCCGC	0.043	-0.00493	0.0586	0.167	-0.00706	-0.0366	-0.0893		-0.0594	0.0133
GTAGTCG	0.134	0.113	-0.589	-0.257	0.043	-0.587	0.185		0.196	0.0858
TCCTTAA	-0.0154	-0.0594	0.0306	-0.362	-0.115	-0.486	-0.0763		-0.0816	-0.067

Sequence	uncleaved DNA left (log2) [1]	uncleaved DNA left (log2) [2]	uncleaved DNA left (log2) [3]	uncleaved DNA left (log2) [4]	uncleaved DNA left (log2) [5]	uncleaved DNA left (log2) [6]	uncleaved DNA left (log2) [7]	uncleaved DNA left (log2) [8]	uncleaved DNA left (log2) [9]	uncleaved DNA left (log2) [10]
AACTCGA	0.0551	-0.0355	-0.363	-0.863	0.0309	-1.1	-0.136		0.075	-0.144
GCGCTTC	-0.0522	-0.0423	0.08	0.198	0.00287	-0.053	0.0258		-0.0241	0.00648
AAACACT	0.0257	-0.0748	-1.7	-2.84	-0.0433	-0.948	-0.671		-0.0985	-0.438
CCATCGC	0.0514	0.0395	-0.714	-0.597	1.43e-05	-1.19	0.215		0.00781	-0.1
TAGTCGA	0.0447	-0.0713	-0.385	-0.924	0.0833	-1.21	-2.09		0.119	0.0215
CCCTCCT	-0.251	-0.249	-0.0383	-1.83	-0.203	-0.0823	-1.04		-0.168	-0.109
CTCTCTT	-2.11	-0.222	-0.0653	-2.3	-0.00807	-0.453	-2.91		0.0118	0.00386
GACCAAA	-0.116	-0.0328	0.138	0.368	-0.0158	0.204	-0.0238		-0.0297	0.0685
ATGATCC	0.0208	-0.0594	0.0658	0.254	-0.00248	0.0831	0.0574		-0.074	0.113
TCAAATC	0.0851	-0.0196	0.0973	-0.135	0.0276	-0.52	0.0715		-0.0194	0.0275
GCGTGTT	-2.06	-0.39	-0.685	-1.14	-1.02	0.41	-2.59		0.0344	-0.776
CTCGCTA	0.17	0.05	-0.0917	-0.954	0.158	-0.832	0.0243		0.0993	0.137
TCCAATA	-0.0534	-0.0662	-0.126	-1.39	-0.0711	-0.672	-0.0972		-0.077	0.015
TGTCCTG	0.00242	-0.0358	-0.014	0.139	-0.0185	0.522	-0.0262		0.0761	-0.0702
ACCCAAG	0.144	0.121	-0.351	0.202	0.0839	-0.732	0.255		-0.0409	0.0574
CAAAATC	0.00344	0.0353	-0.266	-0.886	-0.0148	-0.907	-0.0121		0.0667	0.219
CTTCGTC	-0.0267	-0.0194	-0.201	-0.531	-0.192	-0.943	-0.117		-0.00706	-0.115
AAGAGAG	0.0427	-0.00201	-0.241	0.159	0.0631	-0.667	0.206		0.0393	-0.017
TATCACA	-0.115	-0.078	0.0591	-2.15	-0.0639	-0.136	-0.14		-0.0161	-0.0453
GAGGGCT	-0.0066	-0.0317	0.768	1.35	-0.074	1.9	0.142		-0.0913	-0.0459
